The values that follow come from US20110286916A1 (published 2011).

Assay [1] addresses human Notch3-Gal4 chimeric receptor on U2OS FlpIn TREx cells (human, UniProt Q9UM47 40-2321). Kind of assay: cell-based or functional assay.
Assay [2] concerns the target T1, human full-length Notch1 with C-terminal FLAG tag, stably expressed on 293 FlpIn (TREx) cells (human, UniProt P46531 19-2555).
T1 construct: tetracycline/doxycycline-induced expression from pcDNA5/FRT/TO-HN1+FLAG; also called hN1; 293_N1
Kind of assay: FACS, hN1 293 cells, MFI grade (++ 101-500). As for the experimental part: Notch 293 FlpIn (TREx) cells were treated with dox (2 ug/ml) for two days to induce Notch expression before collecting them for FACS surface expression analysis. The cells were harvested from tissue culture flasks using Trypsin for 15 min, centrifuged at 1200 rpm for 10 minutes and resuspended in 2 ml PBS with 2% fetal bovine serum (2% FBS/PBS). The cells were counted, adjusted to 10⁷ cells/ml and 0.1 ml of cells was incubated with 1 ug of each Mab for 40 minutes at 4° C. The cells were washed, resuspended in 0.1 ml 2% FBS/PBS and incubated with 1 ug R-PE-conjugated goat anti-human Ig (Jackson ImmunoResearch) for 30 minutes at 4° C. Cells were washed, resuspended in 0.3 ml PBS with 10% formaldehyde and analyzed on a FACSCalibur (Becton Dickinson, Mt View, Calif.).
Background: A flow cytometer gives signals particle by particle.

Assay [3] has as its target T2, Notch1 extracellular fragment (amino acid 19-526) Fc fusion protein, R&D Systems 3647-TK (human, UniProt P46531 19-526).
T2 construct: bought protein; also called Notch1/Fc; Notch1-ECD Fc fusion protein; not shown: Fc of the bought fusion protein
Kind of assay: titration ELISA, antigen coated, purified IgG1. The protocol:
Plates were blocked with 300 ul of milk blocker per well and incubated for 2 hour at RT. […] After washing plates with PBS or TBS buffer, anti-human lambda light chain antibody with HRP was used for detection antibody and absorbance at 450 nm was read with a plate reader.
For orientation: In an ELISA, binding on a coated surface is turned into a signal by an enzyme label.

The target in assay [4] is T2, Notch1 extracellular fragment (amino …). Put plainly: BIAcore SPR, Notch1/Fc on CM5, Mab analyte, 1:1 binding. The protocol:
All experiments were performed at 25° C. at a flow rate of 40 μl/min. […] FC1 was used as the reference cell. Specific signals were the results of differences of signals obtained on FC2 versus FC1. […] The dissociation phase of the analyte was monitored over a period of time ranging 10-30 minutes. Running buffer was also injected under the same conditions as a reference.
Equilibrium dissociation constant (KD) was calculated by the ratio between dissociation (koff) and association (kon) rate constants.

B1: WC-133 (antibody, human IgG1, lambda, V domains shown)
VH: [about 100 residues not spelt out]DSFDYWGQGTLVTVSS
VL: SYELTQPPSASGTPGQRVTISCSGSNSNIGSNTLNWYQQLPGTAPKLLIYSNNQRPSWVPDRFSGSKSGTSASLAISGLQSEDEADYYCAAWDDSLNGLIFGGGTKLTVLQ
notes: also called N1wc133; Hn1WC-133
A word on the EC50: it is the concentration that produces a half-maximal response. For orientation: Kd means the free concentration of one partner at which half of the binding sites on the other are occupied at equilibrium, for simple one-to-one binding. As a reminder, the koff is a measure of how fast the partners let go of each other. A high value points to a short-lived complex. For orientation: kon means the second-order rate constant of association. A low value points to slower complex formation. B1: the “hN3, inhibition of Luc activity at [166 nM] Mab” value in assay [1] is below 10%. In addition, the MFI in assay [2] lay in the range of 101 to 500 mfi. The same molecule yielded an EC50 in assay [3] of 170 pM. Further, in assay [4], the Kd came to 1660 pM, the koff was determined as 0.00026 s⁻¹ and the kon turned out to be 157000 M⁻¹ s⁻¹.
